This note sets out measurements from PMC6919601, “Identification of Plasmodium dipeptidyl aminopeptidase allosteric inhibitors by high throughput screening” (PLoS ONE, 2019).

Screen size: about 110,000 compounds; about 230 (0.21%) showed an effect of 50% or more. This is one part of the list.
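Also: 30 min substrate incubation versus DMSO and 10 µM JCP410 controls.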

In this assay the target is DPAP1 (Plasmodium falciparum, UniProt Q8IIJ9). Description: primary screen, percent inhibition; read by cleavage of a fluorogenic dipeptide substrate; higher = more effect of the substance. Also on record: species or system P. falciparum D10 trophozoite lysates; single well.
Sequence of DPAP1 (Q8IIJ9 whole entry, looked up): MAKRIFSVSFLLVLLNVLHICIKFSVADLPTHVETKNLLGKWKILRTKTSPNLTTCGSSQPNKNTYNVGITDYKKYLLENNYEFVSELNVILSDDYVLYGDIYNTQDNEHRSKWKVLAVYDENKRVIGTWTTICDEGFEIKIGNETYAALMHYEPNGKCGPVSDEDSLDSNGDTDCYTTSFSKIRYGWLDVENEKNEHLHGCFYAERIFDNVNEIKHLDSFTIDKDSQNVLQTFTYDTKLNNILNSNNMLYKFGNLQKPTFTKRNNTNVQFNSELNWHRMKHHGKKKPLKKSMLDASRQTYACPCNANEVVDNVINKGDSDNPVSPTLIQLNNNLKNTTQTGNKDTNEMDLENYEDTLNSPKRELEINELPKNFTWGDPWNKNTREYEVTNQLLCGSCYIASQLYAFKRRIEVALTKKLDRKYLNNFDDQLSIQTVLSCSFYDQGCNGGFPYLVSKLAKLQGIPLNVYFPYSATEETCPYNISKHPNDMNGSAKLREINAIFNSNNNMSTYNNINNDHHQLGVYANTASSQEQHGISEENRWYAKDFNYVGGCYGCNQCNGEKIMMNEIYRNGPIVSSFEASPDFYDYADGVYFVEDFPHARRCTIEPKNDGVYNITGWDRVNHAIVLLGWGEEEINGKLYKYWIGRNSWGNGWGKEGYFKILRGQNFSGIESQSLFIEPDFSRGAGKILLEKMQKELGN
In the case of `Cc1ccc(S(=O)(=O)NCC2CCC(C(=O)NCCCN3CCCC3)CC2)cc1` (stereo not shown), the “% Inhibition @ 10 uM” value was -0.971%. The result for `CCCOc1ccc(CN(C(=O)c2cc(=O)c3cc(Cl)ccc3o2)C2CCS(=O)(=O)C2)cc1` (stereo not shown) reads 9.43%.

Turning to `Cc1cc2c3c(c1C)C(=O)C(=O)N3C(C)(C)CC2C` (stereo not shown), the “% Inhibition @ 10 uM” value came to 0.889%.

Consider `Nc1nnc(SCC(=O)Nc2ccccn2)s1`, for which the “% Inhibition @ 10 uM” value is on record as -2.87%. For `COc1ccc(S(=O)(=O)N2CCN(c3ccccc3OC)CC2)cc1OC`, the “% Inhibition @ 10 uM” value is 2.92%. The result for `COc1ccc(OC)c(NC(=O)C(N)=O)c1` reads -4.24%. Turning to `CCc1ccc(Sc2cc(C(=O)NCCCOC)c3ccccc3n2)cc1`, the “% Inhibition @ 10 uM” value was determined as 1.62%. The result for `Cc1occc1C(=O)Nc1nc(-c2ccc(Cl)c(Cl)c2)cs1` reads -4.13%; that for `Cc1ccc(F)cc1S(=O)(=O)NCCSc1nnc(CN2CCOCC2)n1-c1ccccc1`, -0.92%; that for `Cc1cccc(C)c1-n1nnnc1C(c1ccc(O)cc1)N1CCOCC1` (stereo not shown), 9.68%. As for `CC(Sc1cccc[n+]1[O-])c1ccccc1` (stereo not shown), the “% Inhibition @ 10 uM” value worked out at 4.11%. Regarding `CCOC(=O)c1c(NC(=O)C(c2ccccc2)c2ccccc2)sc2c1C1CCN2CC1`, the “% Inhibition @ 10 uM” value was -6.78%. With `CC1CCN(S(=O)(=O)c2c[nH]cn2)CC1`, the “% Inhibition @ 10 uM” value is 4.51%. `COc1ccc(Br)cc1CNC(=O)C1CCCN(C(=O)N(C)C)C1` (stereo not shown): the “% Inhibition @ 10 uM” value stood at 0.514%. Regarding `CC(C)OC(=O)c1nnn(-c2nonc2N)c1CN1CCCCC1`, the “% Inhibition @ 10 uM” value is reported as 14.6%. Consider `COc1ccc(C(=O)Nc2cc(Cl)cc(Cl)c2)cc1`, for which the “% Inhibition @ 10 uM” value is reported as 1.91%.

Take `COC(=O)c1cc2occc2n1Cc1cccc(Cl)c1`: the “% Inhibition @ 10 uM” value is -0.246%. For `CCCN(CCC)CCNC(=O)c1cc2c(C)nc3ccccc3c2o1`, the “% Inhibition @ 10 uM” value was -0.22%. For `CC(C)(C)C(=O)CNC1C2CC3CC(C2)CC1C3` (stereo not shown), the “% Inhibition @ 10 uM” value is 1.13%. As for `Cc1c(CC(C)C)nc(N)c(C#N)c1-c1ccc(F)cc1`, the figure is 2.92%; as for `CCCCN1CC2=C(C1=O)C(c1ccc(O)cc1)NC(=O)N2C` (stereo not shown), -2.63%; as for `COc1ccc(-c2nc(O)c3c(n2)Oc2ccc(Br)cc2C3)c(OC)c1OC`, 2.32%. As for `Clc1ncnc2c1nc1n2CCCCC1`, the “% Inhibition @ 10 uM” value is on record as 5.12%.

In the case of `O=C(COc1ccccc1)Nc1cccc2cccnc12`, the “% Inhibition @ 10 uM” value is listed as -0.795%. In the case of `COc1ccc(CCNc2nc3ccccc3c3nc(-c4cccnc4)nn23)cc1OC`, the “% Inhibition @ 10 uM” value was -2.42%.

For the molecule `Cc1c(C(=O)NCc2ccc(OC(C)C)cc2)oc2c1-c1n[nH]cc1CC2`, the “% Inhibition @ 10 uM” value was determined as 21.6%. As for `Cc1n[nH]c(C)c1CCCOc1ccccc1`, the figure is -1.05%; as for `COc1ccccc1OCc1cccc(C(=O)O)c1`, 1.69%. As for `O=C(O)c1cc(S(=O)(=O)N2CCCCCC2)ccc1Cl`, the “% Inhibition @ 10 uM” value is listed as 3.85%. `CCN1CCN(Cc2ccc(OC)c(OC)c2OC)CC1`: the “% Inhibition @ 10 uM” value was determined as 3.25%. As to `O=C(CCCn1c(=O)c2cccn2c2cccnc21)N1CCN(Cc2ccc3c(c2)OCO3)CC1`, the “% Inhibition @ 10 uM” value worked out at 0.677%. Regarding `COC(=O)c1sc(-c2ccccc2)cc1N`, the “% Inhibition @ 10 uM” value was determined as 2.84%. Take `Cc1cc(C)cc(-n2nnc(-c3nc(-c4ccncc4)no3)c2N)c1`: the “% Inhibition @ 10 uM” value was 1.13%.

On to `COc1cc(C(=O)NC2CC2)cc(OC)c1OC`, for which the “% Inhibition @ 10 uM” value is on record as -3.39%. Regarding `Cn1c(C(=O)NC2CCS(=O)(=O)C2)cc2c(=O)n3ccccc3nc21` (stereo not shown), the “% Inhibition @ 10 uM” value stood at 0.214%.

`COc1ccc(OCCCC(=O)Nc2ccc(OC)c(Cl)c2)cc1`: the “% Inhibition @ 10 uM” value is reported as -6.75%. Regarding `COCCCNC(=O)Cn1nc(-c2ccc(Cl)cc2)ccc1=O`, the “% Inhibition @ 10 uM” value is given as -0.0542%.

Consider `COCCNS(=O)(=O)c1csc(C(N)=O)c1`, for which the “% Inhibition @ 10 uM” value was 1.41%. As for `CC(=O)N1CCN(Cc2ccc(OC(F)(F)F)cc2)CC1`, the “% Inhibition @ 10 uM” value is given as -0.0648%. Take `COc1ccc(/C=C2/C(=O)N(c3ccccc3)C(=S)N(c3ccccc3OC)C2=O)cc1`: the “% Inhibition @ 10 uM” value stood at 11.2%. For `Cc1ccc(N(CC(N)=O)S(=O)(=O)c2ccccc2)c(C)c1`, the “% Inhibition @ 10 uM” value was 1.62%. For `CCOc1ccc(S(=O)(=O)Nc2cccc(N(C)S(C)(=O)=O)c2)cc1`, the “% Inhibition @ 10 uM” value is -1.57%. As for `CCN(CC)CC(O)COc1ccc(OC)cc1` (stereo not shown), the figure is -1.45%; as for `Cc1ccccc1-c1nc(CN2CCCC(C(=O)O)C2)c(C)o1` (stereo not shown), 1.42%; as for `Cc1ccc(CCNc2ccccc2)c[n+]1[O-]`, -0.759%.

Consider `CCN(CC)C(=O)C1CCCN(Cc2ccccc2Br)C1` (stereo not shown), for which the “% Inhibition @ 10 uM” value is on record as -3.65%. With `CC(NC(=O)CSc1nnc2c3ccccc3n(C)c2n1)c1ccccc1` (stereo not shown), the “% Inhibition @ 10 uM” value is -0.0735%. Turning to `O=c1oc2c(Cl)cc(Cl)cc2cc1-c1nc2ccccc2[nH]1`, the “% Inhibition @ 10 uM” value worked out at 0.343%. For the molecule `COc1cccc(C(=O)Nc2nc3c(C)cccc3s2)c1OC`, the “% Inhibition @ 10 uM” value is recorded as 3.81%.

For the molecule `O=C(c1cc2ccccc2oc1=O)N(Cc1ccccc1)c1cccc([N+](=O)[O-])c1`, the “% Inhibition @ 10 uM” value is listed as -1.98%. Take `CCc1nc2ccccc2n1Cc1ccccc1C`: the “% Inhibition @ 10 uM” value came to 1.12%.

Consider `O=C1C(O)=C(c2ccccc2F)C(=O)c2ccccc21`, for which the “% Inhibition @ 10 uM” value is -5.51%. As for `N#Cc1c(N/C=C/C(=O)c2cccs2)sc2c1CCCC2`, the figure is 3.19%.

As for `Cc1nn2c(=O)cc(CSc3nc[nH]n3)nc2s1`, the “% Inhibition @ 10 uM” value is -7.44%. As for `Cc1ccc(N2C(=O)C3C4C=CC(C5CC45)C3C2=O)cc1Cl` (stereo not shown), the figure is 0.13%; as for `Cc1[nH]c2ccc(CN3C(=O)c4ccccc4C3=O)cc2c1C`, 2.45%. Regarding `COc1cccc2c(C)cc(N3CCC(O)(c4ccc(Br)cc4)CC3)nc12`, the “% Inhibition @ 10 uM” value was -0.233%. The result for `Cc1ccccc1NC(C#N)c1ccc(Br)cc1` (stereo not shown) reads 2.23%. Take `CCOc1ccc(NC(=O)COc2cccc3ccccc23)cc1`: the “% Inhibition @ 10 uM” value was determined as 0.142%.

As for `CC(C)N(C1=N/C(=C\c2ccco2)C(=O)N1c1ccccc1)C(C)C`, the “% Inhibition @ 10 uM” value is -11.9%.

On to `CC(=O)Nc1c(O)nc2ccc(Br)cc2c1-c1ccccc1`, for which the “% Inhibition @ 10 uM” value is on record as -1.44%. As for `O=C(Nc1nc(-c2ccc(Br)cc2)cs1)c1ccco1`, the figure is -2.99%; as for `CC(C)C[C@H](NC(=O)OCc1ccccc1)C(=O)N[C@@H](CCc1ccccc1)[C@@H](O)CN(Cc1ccccc1)C(=O)OC(C)(C)C`, -0.778%; as for `CCCc1c(O)nc2c(C)cccc2c1C`, -4.32%. As for `O=C(Nc1ccc(S(=O)(=O)N2CCCCC2)cc1)c1ccc(Cl)cc1Cl`, the figure is 0.709%; as for `O=C(O)Cn1cc(C(=O)c2ccccc2F)c2ccccc21`, -3.53%. The result for `CCOc1ccccc1NC(=O)c1cncc(Br)c1` reads -0.872%.
